Reference: PubChem BioAssay AID540317 (National Center for Advancing Translational Sciences (NCATS), 2011)
Among all 390,000 compounds or so, about 2,200 (0.56%) were called active. Inconclusive means that the source gave no clear call. Such entries were picked first, then a sample of the others. The call rests on the fitted dose curve; in most records, active means well fitted inhibition curve with a large enough effect; inconclusive means small, poorly fitted or top-dose-only effect; inactive means no such curve, though single readings can be large or run the other way. Potencies beside an inconclusive call are fits to weak or partial responses and may not hold up.
Further: nearly all actives have a fitted effect of over 70% in size.
Potency means the concentration at half of the fitted maximal effect; tags describe the fitted curve by direction and shape.

What follows are molecules tested against Chromobox protein homolog 1 (Homo sapiens) (UniProt P83916) (assay: HTS for Inhibitors of HP1-beta Chromodomain Interactions with Methylated Histone Tails). Conditions: AlphaScreen HP1-beta / biotin-H3K9me3 peptide binding; series mostly up to 114 µM; activity change, negative = inhibition: at the top concentration.
Chain of UniProt P83916 (P83916 whole entry, looked up): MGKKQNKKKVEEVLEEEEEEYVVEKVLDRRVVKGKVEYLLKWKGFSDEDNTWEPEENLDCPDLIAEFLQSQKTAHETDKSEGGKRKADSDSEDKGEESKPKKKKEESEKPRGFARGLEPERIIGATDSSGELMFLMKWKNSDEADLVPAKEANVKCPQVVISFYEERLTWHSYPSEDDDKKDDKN
Outline: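 HP1-beta protein (50 nM final) preincubated 30 min at room temperature with biotinylated H3(1-18)K9me3 peptide (50 nM) in PBS pH 7.4, 0.01% Tween-20, then compound added for 30 min. AlphaScreen streptavidin donor/nickel chelate acceptor beads (10 ug/mL final), 30 min dark, luminescence read.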
`O=C(COc1ccc(Cl)cc1)Nc1nnc(S(=O)(=O)N2CCCCCC2)s1` was tested, and the Potency was inconclusive: 8.91 µM [inhibitor, full curve]. In the case of `O=C(/C=C/c1cccc([N+](=O)[O-])c1)NC1CC2CCC1C2` (stereo not drawn), the Potency is reported as inconclusive: 35.5 µM [inhibitor, single point]. For `O=C(OCc1ccccc1)N1CCC2CC1c1cc(N3CCCCC3)ccc12` (stereo not drawn), the Potency was inconclusive: 17.8 µM [inhibitor, full curve]. With `COc1ccc(Oc2ccc(N/C=C3/CCCC3=O)cc2)cc1` the “activity change, negative = inhibition” value was inactive: 13%. In the case of `CCOc1ccc(NCc2cccn2-c2nnc(N3CCC(C(=O)NCCCN4CC(C)CC(C)C4)CC3)s2)cc1` (stereo not drawn), the Potency is reported as inconclusive: 28.2 µM [inhibitor, partial curve, poor fit]. In the case of `CC1CCCC(NC(=O)CCS(=O)(=O)c2ccc3c(c2)NC(=O)CS3)C1C` (stereo not drawn), the “activity change, negative = inhibition” value is reported as inactive: 10.2%. For `COc1ccc(CCN(C)C/C=C/c2ccccc2)cc1OC`, the Potency was inconclusive: 25.1 µM [inhibitor, partial curve]. `CC(C)C1CC(O)(C2(O)CCCCC2)ON1` (stereo not drawn) was tested, and the Potency was inconclusive: 6.31 µM [inhibitor, single point]. For `CCN(N=O)c1ccc(C=C2C=Cc3ccccc32)cc1`, the Potency was inconclusive: 70.8 µM [inhibitor, single point]. In the case of `O=C(/C=C/c1cccc([N+](=O)[O-])c1)c1ccc2c(c1)OCCO2`, the Potency is reported as inconclusive: 10 µM [inhibitor, partial curve, poor fit]. With `CN(C)c1ccc(NC(=O)c2ccc(COc3cccc(Cl)c3)o2)cc1` the Potency was inconclusive: 22.4 µM [inhibitor, full curve, poor fit]. `Cc1ccc(S(=O)(=O)NCC(=O)N(CC(=O)NC(C)(C)C)Cc2ccc3c(c2)OCO3)cc1` was tested, and the Potency was inconclusive: 89.1 µM [inhibitor, partial curve, poor fit]. With `O=C(NC1CCCCC1)c1cc([N+](=O)[O-])[nH]n1` the “activity change, negative = inhibition” value was inactive: 17.5%. In the case of `N#Cc1c(N)nc2c(c1-c1cccc(O)c1)CCCCCC2`, the “activity change, negative = inhibition” value is reported as inactive: 7.45%. `Cc1ccc(CN2CCN(C(=O)CC(C)C)CC2)cc1` was tested, and the Potency was inconclusive: 17.8 µM [inhibitor, partial curve, poor fit]. In the case of `COc1cc2c(cc1OC)C(=Cc1ccc(N(C)C)cc1)C=C2`, the Potency is reported as active: 10 µM. In the case of `Oc1ccc(NCc2cccc(OCc3ccc(F)cc3)c2)cc1`, the Potency is reported as inconclusive: 25.1 µM [inhibitor, full curve]. In the case of `Cc1nn(-c2ccccc2)c2nc(=O)n(-c3ccccc3)cc12`, the Potency is reported as inconclusive: 6.31 µM [inhibitor, single point]. In the case of `Nc1nn2c(-c3ccccc3)cc(=O)[nH]c2c1N=Nc1ccc(Br)cc1`, the Potency is reported as inconclusive: 20 µM [inhibitor, full curve]. `CCOc1ccc(NC(=S)N2CCC(C(O)(c3ccccc3)c3ccccc3)CC2)cc1` was tested, and the Potency was inconclusive: 31.6 µM [inhibitor, single point]. `CCC(C)NCCOc1ccc(C(C)(C)c2ccccc2)cc1` (stereo not drawn) was tested, and the Potency was inconclusive: 56.2 µM [inhibitor, partial curve, poor fit]. With `Cc1ccc(-c2cc[n+](Cc3ccccc3)cc2)cc1` the “activity change, negative = inhibition” value was inactive: -7.63%. `O=C(/C=C/c1ccco1)Nc1ccc(F)cc1` was tested, and the Potency was inconclusive: 56.2 µM [inhibitor, partial curve, poor fit]. With `COc1ccccc1C(=O)Nc1ccc2c(c1)CCCN2C(=O)c1ccccc1` the Potency was inconclusive: 14.1 µM [inhibitor, partial curve, poor fit]. For `O=C(NCCCN1CCc2ccccc2C1)C1CCN(c2nnc(-n3cccc3)s2)CC1`, the “activity change, negative = inhibition” value was inactive: 21.5%. `CCCCCCC(=O)Nc1nc(C)c(-c2csc(Nc3ccc(Cl)cc3)n2)s1` was tested, and the Potency was inconclusive: 35.5 µM [inhibitor, partial curve]. `Cc1ccc(NC(=S)c2nc3ccccc3[nH]2)cc1` was tested, and the Potency was inconclusive: 39.8 µM [inhibitor, partial curve]. `CC(=O)Nc1ccc(S(=O)(=O)N(C)c2ccc(OCC(=O)OCC(=O)Nc3ccc(OC(F)F)cc3)cc2)cc1` was tested, and the Potency was inconclusive: 89.1 µM [inhibitor, partial curve, poor fit]. With `O=P(c1ccccc1)(c1ccccc1)c1cc(S(=O)(=O)O)ccc1O` the Potency was active: 35.5 µM. In the case of `CN1CCN(c2ccc(C(=O)c3ccc(Br)cc3)cc2[N+](=O)[O-])CC1`, the Potency is reported as inconclusive: 44.7 µM [inhibitor, partial curve]. For `COc1ccc2c(c1)C1CC(C)(NC(=O)C1S(=O)(=O)c1ccc(F)cc1)O2` (stereo not drawn), the Potency was inconclusive: 89.1 µM [inhibitor, partial curve, poor fit]. With `Fc1ccc(N/N=C/c2ccc(N3CCOCC3)cc2)c(F)c1` the Potency was inconclusive: 89.1 µM [inhibitor, single point]. `COc1ccc(CNCc2ccccc2C(F)(F)F)cc1` was tested, and the Potency was inconclusive: 17.8 µM [inhibitor, full curve]. `Cc1ccc(-c2c(C(=O)N3CCN(c4cccc(C)c4)C(C)C3)oc(=O)c3ccccc23)cc1` (stereo not drawn) was tested, and the “activity change, negative = inhibition” value was inactive: -4.46%. `O=S(=O)(Nc1nc(-c2sccc2Cl)cs1)c1cc(Cl)ccc1Cl` was tested, and the Potency was inconclusive: 15.8 µM [inhibitor, full curve]. For `NC(=O)[C@@H]1CCCNc2c(I)cc([N+](=O)[O-])cc2C(=O)N[C@@H](Cc2ccccc2)C(=O)N[C@@H](Cc2cnc[nH]2)C(=O)N1`, the “activity change, negative = inhibition” value was inactive: 7.52%. With `COc1ccc(N2CCN(CC(O)COc3ccccc3[N+](=O)[O-])CC2)cc1` (stereo not drawn) the Potency was inconclusive: 44.7 µM [inhibitor, partial curve]. With `Nc1c(Br)cc(Br)c2c1C(=O)c1c(cccc1S(=O)(=O)O)C2=O` the Potency was inconclusive: 63.1 µM [inhibitor, partial curve, poor fit]. With `CCn1c(CN2CCN(C(c3ccccc3)c3ccccc3)CC2)nc2c1c(=O)n(C)c(=O)n2C` the Potency was inconclusive: 79.4 µM [inhibitor, partial curve, poor fit]. For `c1ccc(-c2nnc3sc(-c4csc5c4CCCC5)nn23)cc1`, the Potency was inconclusive: 12.6 µM [inhibitor, full curve, poor fit]. `Cc1ccc2sc(N(CCCN(C)C)C(=O)c3ccc(S(=O)(=O)N(C)C4CCCCC4)cc3)nc2c1C` was tested, and the Potency was inconclusive: 39.8 µM [inhibitor, partial curve]. For `COc1ccccc1-c1cn[nH]c(=S)n1`, the Potency was inconclusive: 50.1 µM [inhibitor, partial curve, poor fit]. For `COc1cc(-c2nc3ccccn3c2/N=C/c2cc(OC)c(O)cc2Cl)ccc1O`, the Potency was inconclusive: 39.8 µM [inhibitor, partial curve]. With `Oc1ccc(-c2csc(-c3ccccc3)n2)cc1O` the Potency was inconclusive: 50.1 µM [inhibitor, partial curve, poor fit]. For `CCOc1cccc(-c2nnc3sc(C4CCCCC4)nn23)c1`, the Potency was inconclusive: 12.6 µM [inhibitor, partial curve, poor fit]. `Cc1ccc(Cn2c(CCNc3nc(-c4ccc(C)cc4)cs3)nc3cc(C(=O)NCCCO)ccc32)cc1` was tested, and the “activity change, negative = inhibition” value was inactive: 29.6%. For `CN(Cc1ccccc1)c1oc(-c2ccco2)nc1C#N`, the Potency was inconclusive: 39.8 µM [inhibitor, partial curve, poor fit]. In the case of `CS(=O)(=O)N1CCN(CC(=O)NC2CCCCC2)CC1`, the “activity change, negative = inhibition” value is reported as inactive: -7.47%. In the case of `COc1cc(O)c(C(CCN2CCCC(C)C2)c2cc(OC)c(OC)c(OC)c2)c(OC)c1` (stereo not drawn), the Potency is reported as “inactive”. `CCOC(=O)C1CCCCN1S(=O)(=O)c1ccc2c(c1)CC(C)N2C(=O)C1CCC1` (stereo not drawn) was tested, and the “activity change, negative = inhibition” value was inactive: 19.3% [at 57 µM]. `NC(=O)CSc1nc(C2CC2)nc2sc3c(c12)CCCC3` was tested, and the “activity change, negative = inhibition” value was inactive: 31.8%. In the case of `CCc1ccc(NC(=O)N(Cc2c[nH]c3ccccc23)C2CCCCCC2)cc1`, the “activity change, negative = inhibition” value is reported as inactive: 29%. `CCC(C)NCCOCCOc1ccc(C)cc1OC` (stereo not drawn) was tested, and the Potency was inconclusive: 28.2 µM [inhibitor, partial curve, poor fit]. For `CCn1c(CCCCc2n[nH]c(=S)n2CC)n[nH]c1=S`, the Potency was inconclusive: 89.1 µM [inhibitor, single point]. In the case of `CC1C=CCC2C(=O)N(c3ccc(Cl)cc3O)C(=O)C12` (stereo not drawn), the Potency is reported as inconclusive: 7.94 µM [inhibitor, full curve, poor fit]. In the case of `O=[N+]([O-])c1ccc(N2CCN(C(=S)c3cccc([N+](=O)[O-])c3)CC2)cc1`, the Potency is reported as active: 11.2 µM. For `Brc1ccccc1OCCCCCN1CCOCC1`, the Potency was inconclusive: 79.4 µM [inhibitor, partial curve]. In the case of `C/C(=N\NC(=S)NC(C)C)c1ccc(C(C)(C)C)cc1`, the Potency is reported as inconclusive: 39.8 µM [inhibitor, partial curve]. With `CCN1CCC(O)(/C=C/c2ccc(C(C)C)cc2)C(C(=O)/C=C/c2ccc(C(C)C)cc2)C1` (stereo not drawn) the Potency was inconclusive: 10 µM [inhibitor, full curve, poor fit]. For `CCCCn1c(N)c(N(CCOC)C(=O)COC(=O)c2ccccc2NCCO)c(=O)[nH]c1=O`, the “activity change, negative = inhibition” value was inactive: 29.5%. With `Brc1ccc(C2=Nc3cccc4cccc(c34)N2)o1` the Potency was active: 44.7 µM. `N#C/C(=C\c1ccc(O)c(O)c1)C(=O)Nc1ccccc1` was tested, and the Potency was inconclusive: 11.2 µM [inhibitor, full curve]. With `Cc1cc(C)c(N)c(C(=O)O)c1` the “activity change, negative = inhibition” value was inactive: 41.1%. With `O=S(=O)(NCCc1csc(-c2ccc(F)cc2)n1)c1ccc(F)cc1F` the “activity change, negative = inhibition” value was inactive: 31.5% [at 57 µM]. With `CC(C)NC(=S)NN=C1CCC(c2ccccc2)CC1` (stereo not drawn) the Potency was inconclusive: 56.2 µM [inhibitor, single point]. For `Cc1ccc(NC(=O)CN2CCCC2c2cccn2C)cc1C` (stereo not drawn), the Potency was inconclusive: 70.8 µM [inhibitor, partial curve, poor fit]. In the case of `CCc1cccc(C)c1NC(=O)CSc1nnc(Cc2csc(C)n2)o1`, the “activity change, negative = inhibition” value is reported as inactive: 6.64%. `Cc1ccc(N(CC(=O)NCCc2ccc(F)cc2)S(=O)(=O)c2ccc(Cl)c([N+](=O)[O-])c2)c(C)c1` was tested, and the Potency was inconclusive: 39.8 µM [inhibitor, partial curve].
